# PubChem BioAssay AID720708 (National Center for Advancing Translational Sciences (NCATS), 2013)
# Hit rate of the full screen: of about 360,000 compounds, about 660 (0.18%) were called active. Inconclusive means that the source gave no clear call. Such entries were picked first, then a sample of the others. Calls come from the whole dose curve; as a rule, active = well fitted inhibition curve with a large enough effect; inconclusive = small, poorly fitted or top-dose-only effect; inactive = no such curve, though single readings can be large or run the other way. No potency is given beside an inconclusive call; the fits are too rough.
# Biological target: Rap guanine nucleotide exchange factor 4 (Homo sapiens) (UniProt Q8WZA2)
# Sequence of UniProt Q8WZA2 (Q8WZA2 whole entry, looked up): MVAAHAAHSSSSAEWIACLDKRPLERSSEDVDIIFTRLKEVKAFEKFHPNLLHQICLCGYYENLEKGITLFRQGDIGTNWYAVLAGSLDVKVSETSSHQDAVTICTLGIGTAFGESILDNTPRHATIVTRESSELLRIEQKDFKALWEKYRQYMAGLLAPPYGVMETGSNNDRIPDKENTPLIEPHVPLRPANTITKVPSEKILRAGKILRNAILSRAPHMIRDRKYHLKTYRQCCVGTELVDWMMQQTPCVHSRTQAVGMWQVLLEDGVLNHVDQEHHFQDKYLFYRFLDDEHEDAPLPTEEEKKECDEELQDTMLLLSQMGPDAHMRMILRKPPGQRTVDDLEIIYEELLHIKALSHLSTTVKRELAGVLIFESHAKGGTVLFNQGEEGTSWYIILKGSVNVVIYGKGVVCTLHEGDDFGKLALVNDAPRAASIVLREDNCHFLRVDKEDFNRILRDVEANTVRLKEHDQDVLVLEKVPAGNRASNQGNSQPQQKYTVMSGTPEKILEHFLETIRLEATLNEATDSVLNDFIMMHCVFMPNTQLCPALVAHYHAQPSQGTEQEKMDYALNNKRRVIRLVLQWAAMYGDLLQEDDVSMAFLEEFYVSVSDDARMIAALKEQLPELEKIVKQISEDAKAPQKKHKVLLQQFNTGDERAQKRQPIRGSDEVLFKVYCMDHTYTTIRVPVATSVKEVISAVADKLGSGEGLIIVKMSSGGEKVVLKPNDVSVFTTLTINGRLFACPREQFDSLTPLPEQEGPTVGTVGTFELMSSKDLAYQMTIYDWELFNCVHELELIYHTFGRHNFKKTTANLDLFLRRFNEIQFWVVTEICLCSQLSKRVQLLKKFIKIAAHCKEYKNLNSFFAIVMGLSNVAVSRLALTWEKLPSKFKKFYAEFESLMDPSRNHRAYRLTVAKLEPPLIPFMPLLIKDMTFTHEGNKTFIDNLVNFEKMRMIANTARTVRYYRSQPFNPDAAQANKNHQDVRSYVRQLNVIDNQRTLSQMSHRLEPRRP
# Assay: qHTS for Antagonist of cAMP-regulated guanine nucleotide exchange factor 2 (EPAC2): primary screen; note: nearly all actives have a fitted effect of over 45% in size
# Conditions: EPAC2 GEF exchange of Rap1B-BODIPY-GDP, fluorescence; activity, negative = inhibition: at 114 µM (top of the series) unless noted
# % is set by controls: 0 for no effect and ±100 for the full control effect; potency is the fitted concentration of half-maximal effect; tags give direction and shape of the fitted curve.
Compound,"activity, negative = inhibition",Potency
NC1=C(Br)C(=O)c2ccccc2C1=O,inactive: -12%,
Nc1nc2c(nc(Br)n2[C@@H]2O[C@@H]3COP(=O)(O)O[C@H]3[C@H]2O)c(=O)[nH]1,inactive: 16.5%,
CC(=O)Nc1c(Cl)cc2c(c1Cl)Cc1cc(C#N)ccc1-2,inactive: 10.9%,
CCOC(=O)C1=C(C)NC(=O)NC1c1ccc(N(CC)CC)cc1 (stereo not drawn),,"inconclusive [inhibitor, partial curve]"
CCCCCCCCCCS(=O)(=O)N/N=C/c1ccccc1OC,,"inconclusive [inhibitor, partial curve]"
CCCc1[nH]c2ccc(C(=O)OC)cc2c1CCC,,active: 28.2 µM
COc1ccc2cc(S(=O)(=O)N3CCCCCC3)ccc2c1,,"inconclusive [inhibitor, full curve]"
O=C(CCC(=O)N1CCN(c2ccc(F)cc2)CC1)N1CCN(c2ccc(F)cc2)CC1,inactive: 2.07%,
COc1ccc(/C=N/NC(N)=S)cc1OC(=O)c1cccc2ccccc12,inactive: -4.5%,
Cn1c(=O)n(Cc2ccc(Br)cc2)c2ccccc21,,"inconclusive [inhibitor, partial curve]"
Cc1nc2c(OCc3ccc(F)c(F)c3)cccn2c1N(C)C(=O)CCC1CCCC1,,"inconclusive [inhibitor, partial curve]"
COC(=O)c1ccccc1NC(=O)CN1CCC(C)CC1,,"inconclusive [inhibitor, partial curve]"
CCn1c(SCC(=O)N2CCC(C)CC2)nc2c(c1=O)SCC2,inactive: 1.28%,
O=C1NC(=S)S/C1=C\c1cc(Cl)cc(Cl)c1O,,active: 56.2 µM
COc1ccccc1-c1oc2ccccc2c1C#CCCO,,"inconclusive [inhibitor, partial curve]"
CS(=O)c1ccccc1-c1nc(-c2ccc(Cl)cc2)no1 (stereo not drawn),inactive: -12.5%,
COc1ccccc1C(=O)NNC(=O)c1ccc(Cl)cc1,,"inconclusive [inhibitor, single point]"
CCOC(=O)C1(Cc2ccc(Cl)cc2)CCN(CCCn2cccn2)CC1,inactive: -5.55%,
CCc1nc(-c2ccccc2)c2ccccn12,inactive: 10.2%,
COc1ccccc1NC(=O)CN1CCSc2ccccc21,inactive: -12.2%,
COc1ccc(C(=O)Nc2cccc(C)n2)cc1S(=O)(=O)N1CCCc2ccccc21,,"inconclusive [inhibitor, partial curve]"
O=C1C=C(N(CCO)Cc2ccccc2)c2ccccc2C1=O,,"inconclusive [inhibitor, partial curve]"
Clc1ccc(-c2cccc3nccn23)c(Cl)c1,,"inconclusive [inhibitor, partial curve]"
